# Reference: article PMC10726135
# Some of the results follow. At the low end of the ranking the order means little. Measured with an extract: partners may take part in the binding.
# Target: T1, HNF4alpha8 (COS-7 nuclear extract) (UniProt P41235-5)
# T1 sequence: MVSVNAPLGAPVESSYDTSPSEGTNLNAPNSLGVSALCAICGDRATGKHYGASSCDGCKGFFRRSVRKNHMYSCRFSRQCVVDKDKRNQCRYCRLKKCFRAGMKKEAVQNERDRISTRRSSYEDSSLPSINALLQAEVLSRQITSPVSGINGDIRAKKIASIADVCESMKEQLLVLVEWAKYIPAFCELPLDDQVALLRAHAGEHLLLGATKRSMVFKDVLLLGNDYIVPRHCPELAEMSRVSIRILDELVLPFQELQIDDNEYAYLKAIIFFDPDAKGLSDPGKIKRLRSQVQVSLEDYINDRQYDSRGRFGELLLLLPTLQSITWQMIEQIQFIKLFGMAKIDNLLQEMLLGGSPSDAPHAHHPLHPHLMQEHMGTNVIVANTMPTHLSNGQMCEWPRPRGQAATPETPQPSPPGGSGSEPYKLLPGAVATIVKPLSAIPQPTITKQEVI
# Assay: protein-binding microarray
# Details: COS-7 nuclear extract on double-stranded Agilent 4x180k PBM; binding buffer, salt, pH and temperature not given; high values mean tight binding; double strand, one strand shown; sequences stand for … in …GCCTAGGGAGATTAGAGTATCGGTCGA
row,Sequence,binding signal (log2 normalized intensity)
1,TGTCTTTTCTCCCCTGACTACCAGCCAGTA,1.09
2,CAGTGAACAAAACATGGATTTTGGAGCCAA,0.525
3,GGTCCCTGGAGATAATAGTGGCTGAAAGTA,-1.25
4,GGAAGGGCTTTATGACCAGTGTGTTGTGCT,0.182
5,GATGTTGGGAGGAGTGGACTTTGATCTCAG,9.38
6,AAAGAGACATCTGGGAACAAGTTCTGCAGA,-1.31
7,TTTCAATTACAAAGCAACACAATGCATATC,-0.943
8,CATCTGCCCAGCAGAGCAGTTTAGAGAAAG,-1.31
9,GTTAGACTACTTATCTCCAAGACCCTTCAT,0.521
10,GAGGAATCCCATTCCCTCTAATCTGGGACA,-1.2
11,AGTCCCTGAGTATTATCTTTTTAATCAATA,-0.318
12,GGGTGAGTGCATGAATCAACTGTTGTGGAC,1.79
13,CATGGATGACCTCTTTTAGTAACTGACTTT,1.96
14,AGCTCGCTCAGCTGGTTGCCCCTTTGACCC,8.48
15,GGACTTTGGTCTGCTGAGTCTCATGATTAG,5.1
16,GAGCAGGGAGCGAGACGCTGAGCTTCTGCG,-1.47
17,CTTTGGCCAAATAATAGCATTGTAGTAATA,0.658
18,TTTGAACTGTGTTGCAAATTATTACTCCCA,1.49
19,GGCATGCATATGAGTAATGTGAAGACTTCG,0.667
20,GGCCTCCAGAAGGAATGCAGCCCTGCCACT,-0.835
21,AGTTTCCCTTGATCAAAAACTGCCTAAATC,-1.1
22,TAAATACTTCTCCTCTTATCTTCAGGTTTG,1.12
23,GAGCAGTCCTGCACATGAATGATCAAAGGT,2.35
24,ATGTGTTTGCTTTTTACCATCTCCAACATG,0.341

row,Sequence,binding signal (log2 normalized intensity)
1,TACCGGCTAGACAAACAGCTTCTGTCCTAA,-1.39
2,CCATAGGCAGCTTCAGGATGAAGGCTGCTG,-1.22
3,GAAGATCGCAGACTTTGGACTCTGCAAGGA,6.68
4,TCTTTCAGGGTGGGAAAGGAATGTAATGTA,0.874
5,ATCTTGGGTTAGGCCTTTAGAGGATTTACT,-1.25
6,CTTTAGATTCTTACAGGCAATTGATAATGA,0.6
7,TTTTCTGCTGCATGCCACACATTGCTGCCA,-1.26
8,TCGTCCAGTTACTGAAAGGGAACCCTAATC,-1.14
9,CAGGCATTAACCCTTTAGTGCCTGGATCTT,1.09
10,ATCCCTGCAGCCCACAGCCCGCTGTGCCTG,-1.43
11,AAATTGCTCAGTGCCTTCTCTAATGACTGA,-1.18
12,TGTCAGACAAACAGACTTCACACTAGAAGA,-1.35
13,CTCCCTGCATTCCATTTCTGCCCCTTGCTC,4.04
14,AGGCTTCTAGAAGAGGTTAAAGACCTTTGG,4.82
15,ACAAGGGTACCAACAGGTCCAAGGTTCAGA,5
16,ATAAAGCAGGGAGAGTTGCACCCAGGCCGT,-1.4
17,TCAAGGATGTTTATACAGCCTTGGAAGACA,-1.41
18,TCTTTCTCCAACTGCTCCTCTTCAACTGAT,0.58
19,AGATGAAAGCTTCTGCGGAAATAATTGATT,-1.05
20,TATGATCTTTCATTCCTATTGTCCCATCTC,2.12
21,GGAGGCACTCATGGTGTTTGCTTTGTGAAG,0.272
22,AAGACCCAAGGCGTATGAAGCTTTGACCCT,5.29
23,AACCAGAGAATCTCTCATTTCAAGGCTGGC,-1.35
24,CCACCCCCTCCACCCCTGCCTTTCATTCTC,4.71

row,Sequence,binding signal (log2 normalized intensity)
1,GGGACAGCACTGGCATGCAGCAGGGGAATG,-1.23
2,GATGAGAAACTTATTGTGAACTGGAGCAAA,0.122
3,ACGTCAGAACTGTCCTTTAACCTCCCTGCA,2.93
4,TCTTCCAGTTCATTTCTGTATCCCTGTTAT,1.97
5,AAAAGCAGCCATTAAGAAGCAAGTGTTTAA,-1.25
6,GCACTATTATCCCCCTATCCCAAGACATCA,4.64
7,AATAAAGGAACTTACGAAGATAAATCAGAA,-1.03
8,TTTGTCACTGCAAATGATGTCTCTCATTGG,0.572
9,CCAGCCCACTTACCACCCACAGAGGGGGTT,-1.3
10,AAGAAGAGCTCAGTCACAGCAGTGGACTTT,7.41
11,CCCATTAGAACAAAGATCAAAGCAGTATCA,-0.868
12,GACTGGGTGAGGAAGGGTATGCATGGAATG,0.981
13,CGGTGTATGCTCTCAGTGCTAACACGTGGC,-0.551
14,TGAAGGTGAATTTCAAGAATCTAATCAGGC,-1.34
15,CAAGGTACAGAGAGTTTAAGTAACTTCTCA,-1
16,AAAGTGCAACTACAAGGAGCAGCCTAGTAA,-1.37
17,TGACCACGGGGGCCGCTCTCCCTCCAGGCC,-1.35
18,GTCAGATTTTATTTACACACAGGGAGATGG,-1.09
19,GAGTGGTGACTGAAGTCCAACCCTCCGTTT,1.92
20,AATAGTAAAGTATGTTTGTGCTGGTTACTA,0.9
21,GGTCGGGCGCGCGGGCCGGGAGGGGGACGC,-1.28
22,TTTCCCTGCCAGTTCCATGTAATCCCATGC,-0.777
23,GCCTTGCTTATCTGGGAGGGGGAGGTTTTG,0.305
24,TGGTGTGAACCAGGGTTAAGGTTTTGTAAC,1.59

row,Sequence,binding signal (log2 normalized intensity)
1,GGTGATTGGTGAGTCTTAGGGAGGGGCCAG,-1.11
2,AGCTTGGCCAAAGTACGCTCCACCCCTCAG,3.36
3,TAAGAGTGAACTCTGACCATGCCTATAAAT,2.44
4,ATCTCTCCTAGAGAAAGGGGCTTAGGGAGG,-1.34
5,CCTGTGGGGGAGGTGCAGAGAGGGGCAGGG,-1.34
6,AGCAGGGCGTGGACTTCGCTCCGCCGCTAG,4.76
7,AGGGCAAAGGTCACCAGCTAAGCTGTTACT,5.83
8,ACAGTCCAGTGACTATCTGCTACTTAAGAT,-1.33
9,GGGAGCTCCCTCTGTTGGTGGCACAGGGAA,-1.17
10,GTGGGAGGTGAGGAAAACGGAGACAGAAAC,-1.28
11,GGGGTGGGGACCAGTGGGGGGAAGCTCTGT,-1.19
12,TCATCTGAACTCTGACCAACGCCTCCCTCC,2.6
13,ATGGAGAGTGGAAGACTGCACCAAAATAAA,-1.32
14,ACTACCTCAAAGTTTTGTTATCTCTGCTTG,0.834
15,TGAAAAACACTGGATAAAGTCCATATTCTT,3.08
16,CACACCCCAAAAGGTCAATCTGGATTGTAC,3.66
17,TCTACTCCCTGTTCTTACACCTGCTCCCCT,2.97
18,TCGGGACAAGAGGAATGTTCATTCATTCAC,-1.26
19,GATTGACTCAGGCATTCTGACCTTTGTCTC,7.94
20,TTCATCTGACTGGAAGAGCCTGCAAGGGAG,-1.31
21,TTCTTAGAGAGTTGGGCAAGACTCGTGAAA,1.32
